Experimental data published in the supplement of paper PMC3334620.
Over roughly 33,000 sequences, “E-score (-0.5 to 0.5)” has its median near -0.013; the highest 2% begin near 0.3. The list shows a part of the results.

target: T1, Msn1 (UniProt P22148); experiment: PBM E-score (8-mer binding enrichment) (E-score (-0.5 to 0.5)); higher = stronger / more preferred TF binding; most listed sequences are background and not binding sites; details: protein concentration: 200 nM; construct: GST-full length
T1 sequence: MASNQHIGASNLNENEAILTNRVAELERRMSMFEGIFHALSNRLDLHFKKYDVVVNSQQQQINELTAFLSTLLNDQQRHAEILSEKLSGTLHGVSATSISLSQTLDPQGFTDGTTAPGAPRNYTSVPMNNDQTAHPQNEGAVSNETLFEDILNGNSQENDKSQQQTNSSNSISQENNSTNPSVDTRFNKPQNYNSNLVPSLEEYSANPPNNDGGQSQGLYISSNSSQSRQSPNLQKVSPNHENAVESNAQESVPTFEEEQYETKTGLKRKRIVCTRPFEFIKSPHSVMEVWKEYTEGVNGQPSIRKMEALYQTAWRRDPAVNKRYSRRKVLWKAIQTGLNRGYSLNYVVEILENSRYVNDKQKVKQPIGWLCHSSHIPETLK
Method in brief: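 PURExpress in vitro transcription/translation supplied GST-tagged yeast transcription factors, either full-length or DNA-binding domain. Applied at about 100-200 nM to universal all-10-mer Agilent arrays double-stranded by primer extension, the bound protein was detected with fluorescent anti-GST. E-scores, modified Wilcoxon-Mann-Whitney statistics, were given by the Universal PBM Analysis Suite to ungapped eight-base words pooled with their reverse complements after masliner normalisation.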

| Sequence | PBM E-score |
| --- | --- |
| AAGAATAG | 0.048 |
| AATGGAAC | 0.156 |
| ACCAGAGC | -0.124 |
| AACTCAAG | 0.0432 |
| CGAAAGCG | 0.0854 |
| ACTTGGCG | -0.102 |
| GCGACCCC | -0.371 |
| AGTTGGTA | 0.123 |
| AGGGCTCC | -0.321 |
| GGGACATA | 0.488 |
| ATCTCATG | 0.129 |
| CCTTGTCG | 0.0372 |
| CAACGTGC | -0.103 |
| ATATAGCG | -0.101 |
| AGCACCAT | -0.184 |
| CTCCGTCC | -0.221 |
| AGCTCTAT | 0.00834 |
| AGGTAAAC | 0.172 |
| CATATCCG | 0.0402 |
| GAATCCAC | 0.0116 |
| CGTGCAAG | -0.00022 |
| AGCACCCG | -0.156 |
| GCGGCTCC | -0.285 |
| CGCTTAGC | -0.191 |
| ACGAATAT | 0.176 |

| Sequence | PBM E-score |
| --- | --- |
| CCGTGGCA | 0.0076 |
| GGATCACC | -0.0861 |
| CTTAATTC | 0.147 |
| GACAGCGA | -0.0599 |
| GGAATCCC | -0.209 |
| ACCTATTG | -0.0863 |
| ATCACCCA | -0.118 |
| GGTTATTA | -0.0629 |
| GTACGACA | 0.345 |
| ACGCATTC | 0.00468 |
| CACAGATA | -0.0238 |
| CAGTCTGC | 0.0419 |
| AGGGACAC | 0.45 |
| GGGGCTTA | -0.244 |
| ACTTCACG | 0.0788 |
| AGCGACGC | 0.00685 |
| AAACACCG | 0.0722 |
| ACGATAGC | 0.0171 |
| ACTTTAGA | 0.0439 |
| GTGCGGAA | 0.0291 |
| GATTCAAC | 0.0385 |
| ATGACCAC | 0.0116 |
| GGACCATA | -0.0194 |
| AATTCCGC | 0.146 |
| AAAAGCAT | 0.0095 |

| Sequence | PBM E-score |
| --- | --- |
| AGCGAGCT | 0.0839 |
| CGCGTGAG | 0.0732 |
| AGGTTCAC | -0.0728 |
| AAACTACT | 0.152 |
| GACCGGTA | -0.22 |
| ACTCCAGG | -0.0858 |
| GCTAGTAA | -0.0133 |
| AGTGTATA | -0.0751 |
| CAATCTAA | 0.0421 |
| GAGTTCGC | 0.0343 |
| AACGGAGA | -0.0978 |
| ATATCGCG | 0.212 |
| CGTTGATC | 0.0761 |
| CCTAGCCC | -0.203 |
| AAAGATGT | 0.0547 |
| GAGGAGCC | -0.205 |
| CACAGGCA | -0.24 |
| ACGCGTGA | 0.147 |
| ACTGTGGC | -0.204 |
| GGCAGTCA | -0.0497 |
| CAAGGCTG | -0.131 |
| CGTGCGTC | 0.2 |
| CATTCACC | 0.0597 |
| GGTAACTA | 0.18 |
| CGGCCGGC | -0.0198 |

| Sequence | PBM E-score |
| --- | --- |
| AACGTACA | 0.106 |
| CAGGAAAG | -0.145 |
| CCTAAAAG | 0.0165 |
| CTCCACTC | -0.348 |
| CGCCTTAG | -0.102 |
| AACGCCCA | -0.143 |
| CGTTCGGA | 0.226 |
| CACAGGGA | -0.0953 |
| CAGAAACC | -0.0701 |
| AGCTGTCA | -0.06 |
| AACGGCTC | 0.0232 |
| AAGTGGTG | -0.0982 |
| CGCTTTCC | -0.181 |
| CAGCCAAA | 0.0962 |
| TAACGGCA | 0.0672 |
| AACCTGCG | -0.237 |
| ACACTCAC | -0.0194 |
| ACTCTTAA | -0.035 |
| ACTCATGC | -0.114 |
| CCGAGTCG | -0.14 |
| CCCACTAC | -0.026 |
| ATAGACTA | 0.00413 |
| ATCCAAGC | -0.214 |
| CATCTACA | 0.157 |
| AAGCAAGT | 0.00084 |

| Sequence | PBM E-score |
| --- | --- |
| CCACGTGC | -0.00789 |
| GACTGGCC | -0.255 |
| GCATCAAA | -0.00088 |
| AAGACTAC | -0.142 |
| GGCGGCTA | -0.0252 |
| CCTCGCCA | -0.244 |
| AGATCCTA | 0.136 |
| AGACGCAC | -0.0633 |
| CCACGTGG | -0.276 |
| ACCCACGC | -0.134 |
| CACCTTGA | -0.1 |
| TTCGAGAA | 0.136 |
| CCGTAAGC | 0.00215 |
| ACAAATCC | 0.265 |
| AACACGGG | -0.109 |
| GGGTCATA | -0.0644 |
| GTGGTCGA | -0.202 |
| ACTACTGG | -0.184 |
| ATCGAGGG | -0.111 |
| CGCAACCC | -0.0602 |
| CTGTCAGC | -0.0746 |
| CTAGACTA | -0.0108 |
| GCCAGTAC | -0.217 |
| CTAGGGGC | -0.382 |
| CTTAAACA | -0.103 |

| Sequence | PBM E-score |
| --- | --- |
| GACTGGAC | 0.0789 |
| GAGGTAGA | -0.145 |
| CTTTAGTC | 0.0532 |
| ATGCCGCG | 0.0512 |
| CGAATGCC | -0.156 |
| CCTCATCG | -0.121 |
| AATGCACA | -0.0648 |
| AGCTAATA | 0.074 |
| CATCGGAA | 0.112 |
| ATAACCGC | 0.059 |
| ATCAGGCG | -0.0724 |
| AACCCTTG | -0.094 |
| CGTTTAGC | 0.0103 |
| AAATTGAG | 0.0511 |
| ATTAGCGG | -0.0852 |
| GTGGAAAC | 0.164 |
| CATAAACA | 0.163 |
| ACAGGTCT | 0.0475 |
| CTAGGTTA | -0.0489 |
| GAGTACAC | 0.133 |
| CCTCGTTA | -0.0809 |
| CGCACTTC | -0.208 |
| AAATTACA | 0.192 |
| CTTATATA | 0.156 |
| GCGGCTTA | -0.252 |

| Sequence | PBM E-score |
| --- | --- |
| GTCAAATA | 0.196 |
| GAGTAGGA | -0.151 |
| CAACTAGA | 0.0553 |
| AAGATATC | -0.0407 |
| CTATTTGC | 0.091 |
| AAGATTTG | -0.0279 |
| CAACGTCC | -0.162 |
| GATGATGA | -0.107 |
| GTAGCCAC | -0.178 |
| ATTACTCC | -0.113 |
| AAGATTGT | 0.196 |
| AACTGCGC | 0.0166 |
| AGGGGAAA | -0.106 |
| AATTGGCG | 0.054 |
| CCGTGACG | 0.0942 |
| CTTCAGAC | 0.079 |
| CTATGTTA | 0.136 |
| CATGTACA | 0.3 |
| CCGTTTAC | 0.101 |
| GATTAGAA | -0.0279 |
| CTCGCATC | 0.0505 |
| ATGACCTC | -0.14 |
